Experimental data reported in the supplement of paper PMC10126150.
Values marked as one replicate rest on one cluster of the flow cell; about a third of the high ones do not repeat.

The sequences below were run on ATP (assay: switch fluorescence ratio, 500 uM ATP over buffer (Cy3 cluster intensity, sum of 5 cycles each) (fold (ratio)); higher = stronger signal-on switching upon ATP binding; sequences stand for … in TCGTCGGCAGCGTCAGATGTGTATAAGAGACAGTTTTTTTTTTTTTTTTTTTTTTTTT…TC). Settings: aptamer strand: ATP DNA aptamer (quencher-CACCTGGGGGAGTATTGCGGAGGAAGG + anchor), 100 nM annealed; ATP concentration: 500 uM; one replicate.
How it was run: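 The quencher-labelled ATP aptamer, at 100 nM, was annealed to Cy3-labelled switching-strand clusters on a modified Illumina MiSeq flow-cell. The clusters were imaged in selection buffer, then after 15 min with 500 uM ATP at 22 °C, and this buffer/ATP cycle ran five times with NaOH stripping and re-annealing between runs. Per-cluster fluorescence ratios, summed target-cycle over summed buffer-cycle Cy3 intensity, were averaged per switch-domain sequence. Clusters outside 100-1000 RFU were excluded.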
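Note: ATP exposure 15 min at 22 °C before imaging.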

**Q.** For GCCATGACCG, which switch fluorescence ratio is on record?
**A.** 0.968

**Q.** GGTTAGGGCT was tested. Which switch fluorescence ratio did it give?
**A.** 0.948

**Q.** How did the switch fluorescence ratio turn out when CCAGGCGCG was run?
**A.** 0.995

**Q.** How did the switch fluorescence ratio turn out when ATGCCTTTTG was run?
**A.** 0.979

**Q.** With CGCTCCCAGG as the sequence, how does the switch fluorescence ratio read?
**A.** 1.62

**Q.** Which switch fluorescence ratio does the source give for ATAAAGGATT here?
**A.** 1.02

**Q.** Which switch fluorescence ratio does the source give for ACCGCGCATC here?
**A.** 1.96

**Q.** GGGAGGGTCC was tested. Which switch fluorescence ratio did it give?
**A.** 1.01

**Q.** For ACATTTTTA, which switch fluorescence ratio is on record?
**A.** 1.04

**Q.** How did the switch fluorescence ratio turn out when TGAAATGCCT was run?
**A.** 1.03

**Q.** How did the switch fluorescence ratio turn out when TGCAGAAGAT was run?
**A.** 1.02

**Q.** Which switch fluorescence ratio does the source give for TTTCGCTCAT here?
**A.** 1.02

**Q.** How did the switch fluorescence ratio turn out when GCATGCGAGT was run?
**A.** 1.24

**Q.** With CCTTTAGACA as the sequence, how does the switch fluorescence ratio read?
**A.** 1.02

**Q.** How did the switch fluorescence ratio turn out when TAATTCCATA was run?
**A.** 1.02

**Q.** With GTGCGAAGCG as the sequence, how does the switch fluorescence ratio read?
**A.** 0.982

**Q.** With ATTAAGTTC as the sequence, how does the switch fluorescence ratio read?
**A.** 1.02

**Q.** For GATTTTGGT, which switch fluorescence ratio is on record?
**A.** 0.94

**Q.** TGCAGGCCCA was tested. Which switch fluorescence ratio did it give?
**A.** 0.99

**Q.** Which switch fluorescence ratio does the source give for ACGATAGGTT here?
**A.** 1.08

**Q.** How did the switch fluorescence ratio turn out when TTTGCCCTAG was run?
**A.** 1.02

**Q.** With GCGGTGTATC as the sequence, how does the switch fluorescence ratio read?
**A.** 1.06

**Q.** How did the switch fluorescence ratio turn out when GTCACACATG was run?
**A.** 1.01

**Q.** Which switch fluorescence ratio does the source give for CTTGTATGAT here?
**A.** 0.984

**Q.** For AAGTGTCAAG, which switch fluorescence ratio is on record?
**A.** 0.998

**Q.** For GCTGGCAGCA, which switch fluorescence ratio is on record?
**A.** 1.05

**Q.** With AATGCGCTGT as the sequence, how does the switch fluorescence ratio read?
**A.** 0.994

**Q.** How did the switch fluorescence ratio turn out when AAGACACATT was run?
**A.** 0.99

**Q.** For ATGTCACATC, which switch fluorescence ratio is on record?
**A.** 0.995

**Q.** For TGTTAGGTGG, which switch fluorescence ratio is on record?
**A.** 1.02

**Q.** For CCTACGGGTT, which switch fluorescence ratio is on record?
**A.** 1.47

**Q.** With GGACTATTAC as the sequence, how does the switch fluorescence ratio read?
**A.** 1.13

**Q.** With AAGAGAATG as the sequence, how does the switch fluorescence ratio read?
**A.** 0.998

**Q.** Which switch fluorescence ratio does the source give for GCCGCGCCCT here?
**A.** 1

**Q.** Which switch fluorescence ratio does the source give for TCGGTAGAGA here?
**A.** 1.05

**Q.** How did the switch fluorescence ratio turn out when TGAGGCCAA was run?
**A.** 1.04

**Q.** Which switch fluorescence ratio does the source give for ATTTTGTTGA here?
**A.** 0.987

**Q.** TATAGCGACC was tested. Which switch fluorescence ratio did it give?
**A.** 1.1

**Q.** TGTTTATCAC was tested. Which switch fluorescence ratio did it give?
**A.** 1.04

**Q.** With CCATCTGGTG as the sequence, how does the switch fluorescence ratio read?
**A.** 2.74

**Q.** How did the switch fluorescence ratio turn out when ACTACAACAT was run?
**A.** 1.11

**Q.** Which switch fluorescence ratio does the source give for AGTTGATGCT here?
**A.** 0.991

**Q.** Which switch fluorescence ratio does the source give for TCCAGTGATA here?
**A.** 1.08

**Q.** CCCTTGCGCG was tested. Which switch fluorescence ratio did it give?
**A.** 1.01

**Q.** How did the switch fluorescence ratio turn out when AGCTTAGCGG was run?
**A.** 0.966

**Q.** With GAGGATCTTA as the sequence, how does the switch fluorescence ratio read?
**A.** 0.974

**Q.** CTAGTAGGCT was tested. Which switch fluorescence ratio did it give?
**A.** 1

**Q.** Which switch fluorescence ratio does the source give for TGACGAAAT here?
**A.** 1.41

**Q.** For GCATGATTAC, which switch fluorescence ratio is on record?
**A.** 1.35

**Q.** For GCTGTTTATT, which switch fluorescence ratio is on record?
**A.** 0.982

**Q.** How did the switch fluorescence ratio turn out when TTCAGTTTC was run?
**A.** 1.01

**Q.** CTAATACAAA was tested. Which switch fluorescence ratio did it give?
**A.** 1.03

**Q.** With TTAATACGGT as the sequence, how does the switch fluorescence ratio read?
**A.** 1.03

**Q.** For CCCAATGGAC, which switch fluorescence ratio is on record?
**A.** 1.43

**Q.** For GATATAGGAA, which switch fluorescence ratio is on record?
**A.** 1

**Q.** How did the switch fluorescence ratio turn out when TTTTATCCAA was run?
**A.** 1.02

**Q.** Which switch fluorescence ratio does the source give for CGGTCCAGCT here?
**A.** 0.967

**Q.** With TAGACAGGAT as the sequence, how does the switch fluorescence ratio read?
**A.** 1.01

**Q.** How did the switch fluorescence ratio turn out when CGGTGCCGTC was run?
**A.** 0.978

**Q.** For TGGGTACCAA, which switch fluorescence ratio is on record?
**A.** 1.03

**Q.** Which switch fluorescence ratio does the source give for TGGCGACTGG here?
**A.** 0.999

**Q.** AGGTTCAGAG was tested. Which switch fluorescence ratio did it give?
**A.** 1.06

**Q.** Which switch fluorescence ratio does the source give for ATTCCGCTGT here?
**A.** 3.05

**Q.** For TATGAAATTA, which switch fluorescence ratio is on record?
**A.** 1.02

**Q.** For GGACGCACGC, which switch fluorescence ratio is on record?
**A.** 2.71

**Q.** How did the switch fluorescence ratio turn out when TTTGCGTACT was run?
**A.** 1.02

**Q.** Which switch fluorescence ratio does the source give for CTGCCCTCGG here?
**A.** 1.06

**Q.** How did the switch fluorescence ratio turn out when TCTGCGAATT was run?
**A.** 1

**Q.** With TTAGACAGCG as the sequence, how does the switch fluorescence ratio read?
**A.** 0.99

**Q.** ACCATCCCTT was tested. Which switch fluorescence ratio did it give?
**A.** 1.02

**Q.** TAAAAGTGTG was tested. Which switch fluorescence ratio did it give?
**A.** 1.38

**Q.** Which switch fluorescence ratio does the source give for GCTCCTGTGA here?
**A.** 1.3

**Q.** TAGTACCACC was tested. Which switch fluorescence ratio did it give?
**A.** 1.05

**Q.** How did the switch fluorescence ratio turn out when GGTTGTCAGA was run?
**A.** 1.01

**Q.** GCAACGTTAG was tested. Which switch fluorescence ratio did it give?
**A.** 1

**Q.** Which switch fluorescence ratio does the source give for GTAGGCCGGC here?
**A.** 1.11

**Q.** AGCAACTGCA was tested. Which switch fluorescence ratio did it give?
**A.** 1.02

**Q.** For CCAGGCCTAC, which switch fluorescence ratio is on record?
**A.** 1.31

**Q.** For ATCAGGTTTT, which switch fluorescence ratio is on record?
**A.** 1.04

**Q.** How did the switch fluorescence ratio turn out when TGGATTTATG was run?
**A.** 0.987

**Q.** TACATGGCAA was tested. Which switch fluorescence ratio did it give?
**A.** 0.978

**Q.** How did the switch fluorescence ratio turn out when CCGGCTGCCT was run?
**A.** 1.09

**Q.** How did the switch fluorescence ratio turn out when CTTTGAGGAG was run?
**A.** 0.975

**Q.** With GGCGCCAGTA as the sequence, how does the switch fluorescence ratio read?
**A.** 0.865

**Q.** For TAAGTGGGCT, which switch fluorescence ratio is on record?
**A.** 1.04

**Q.** For TGAGATACAC, which switch fluorescence ratio is on record?
**A.** 1.05

**Q.** With AGAAGCTCGG as the sequence, how does the switch fluorescence ratio read?
**A.** 0.977

**Q.** AAGTTGAAGT was tested. Which switch fluorescence ratio did it give?
**A.** 0.949

**Q.** Which switch fluorescence ratio does the source give for GCCGTCGAAT here?
**A.** 1.02

**Q.** How did the switch fluorescence ratio turn out when AGCTGAATAA was run?
**A.** 0.975

**Q.** How did the switch fluorescence ratio turn out when ATATTTCG was run?
**A.** 1.03

**Q.** How did the switch fluorescence ratio turn out when GAACAGGGTA was run?
**A.** 0.956

**Q.** For ACTGTCCCAC, which switch fluorescence ratio is on record?
**A.** 1.05

**Q.** GCCTTTTTGT was tested. Which switch fluorescence ratio did it give?
**A.** 0.998

**Q.** With ACTGGAGCCG as the sequence, how does the switch fluorescence ratio read?
**A.** 1.03

**Q.** With TTTCAAGGCT as the sequence, how does the switch fluorescence ratio read?
**A.** 0.994

**Q.** How did the switch fluorescence ratio turn out when AGGAGGAACG was run?
**A.** 1.01

**Q.** How did the switch fluorescence ratio turn out when TAAGGCTA was run?
**A.** 0.994

**Q.** Which switch fluorescence ratio does the source give for CCCCTGTTTC here?
**A.** 1.1

**Q.** With TAGTGGTTC as the sequence, how does the switch fluorescence ratio read?
**A.** 1

**Q.** With TGCCAGAACC as the sequence, how does the switch fluorescence ratio read?
**A.** 1.04
